Experimental data as given in a collection of fitness landscapes (doi:10.1016/j.celrep.2020.107928).
In all, about 81,000 sequences were measured (“one-hybrid fitness for binding NBS DNA”: median about -0.1, highest 2% from about 0.36 on). Some of the results follow.

B1: Caulobacter ParB omega fusion; a variant is named by its letters at X, in order, B8GW30 (parent)
chain: MESVVVGEPGMSEGRRGLGRGLSALLGEVDAAPAQAPGEQLGGSREAPIEILQRNPDQPRRTFREEDLEDLSNSIREKGVLQPILVRPSPDTAGEYQIVAGERAWRAAQRAGLKTVPIMVRELDDLAVLEIGIIENVQRADLNVLEEALSYKVLMEKFERTQENIAQTIGKSXSHVANXMRLLXLPDEVQSYLVSGELTAXHARAIAAAADPVALAKQIIEGGLSVRETEALARKAPNLSAGKSKGGRPPRVKDTDTQALESDLSSVLGLDVSIDHRGSTGTLTITYATLEQLDDLCNRLTRGI

Variants of: B1
Experiment: one-hybrid fitness for binding NBS DNA (the Noc-binding site; scaled: cognate 1, non-cognate 0); higher = stronger binding
Settings: with NBS DNA site
Method in brief: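 On M9-minus-histidine containing 0.1 mM IPTG and 5 mM 3-AT, E. coli USO cells with a HIS3 reporter, site 19 bp from the promoter, grew 48 hours at 37°C to select Caulobacter ParB libraries randomised at four specificity codons. Plasmids from before and after were Illumina-sequenced, with three replicate libraries pooled and variants under 10 reads left out. Fitness is the log change in variant-to-wild-type read ratio, rescaled against cognate and non-cognate.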

| Variant | one-hybrid fitness for binding NBS DNA |
| --- | --- |
| EHMG | ≤ 0.2 |
| SPLL | ≤ 0.2 |
| NAEL | ≤ 0.2 |
| WDCV | ≤ 0.2 |
| TGRD | ≤ 0.2 |
| EHGG | ≤ 0.2 |
| IYRT | ≤ 0.2 |
| LIRE | ≤ 0.2 |
| SSLS | ≤ 0.2 |
| RFHR | 0.305 |
| PSWV | ≤ 0.2 |
| KSQG | ≤ 0.2 |
| DDQR | ≤ 0.2 |
| QVIM | ≤ 0.2 |
| IDCL | ≤ 0.2 |
| DVPR | ≤ 0.2 |
| PMHQ | ≤ 0.2 |
| ANTA | ≤ 0.2 |
| TYHG | ≤ 0.2 |
| PLPI | ≤ 0.2 |
| MMVC | ≤ 0.2 |
| NAVW | ≤ 0.2 |
| QRMS | 0.623 |
| PAVF | ≤ 0.2 |

| Variant | one-hybrid fitness for binding NBS DNA |
| --- | --- |
| AIRW | ≤ 0.2 |
| HTWT | ≤ 0.2 |
| AAGR | ≤ 0.2 |
| EPAF | ≤ 0.2 |
| GVEF | ≤ 0.2 |
| RDHL | ≤ 0.2 |
| RFRS | 0.446 |
| PQNV | ≤ 0.2 |
| PAEL | ≤ 0.2 |
| HVVK | ≤ 0.2 |
| SFHL | ≤ 0.2 |
| MAWS | ≤ 0.2 |
| FYII | ≤ 0.2 |
| DACY | ≤ 0.2 |
| SRLR | ≤ 0.2 |
| PHCG | ≤ 0.2 |
| KYAL | ≤ 0.2 |
| DVHT | ≤ 0.2 |
| LQRI | ≤ 0.2 |
| PKRR | ≤ 0.2 |
| EMLT | ≤ 0.2 |
| MRSM | ≤ 0.2 |
| VAYI | ≤ 0.2 |
| RTTE | ≤ 0.2 |

| Variant | one-hybrid fitness for binding NBS DNA |
| --- | --- |
| GSHM | ≤ 0.2 |
| SMAF | ≤ 0.2 |
| LKHA | ≤ 0.2 |
| SDVF | ≤ 0.2 |
| RIRL | ≤ 0.2 |
| SKND | ≤ 0.2 |
| YYGG | ≤ 0.2 |
| MFHG | ≤ 0.2 |
| EYGS | ≤ 0.2 |
| QEYD | ≤ 0.2 |
| DAVD | ≤ 0.2 |
| MATS | ≤ 0.2 |
| YVIP | ≤ 0.2 |
| TYYG | ≤ 0.2 |
| PMAY | ≤ 0.2 |
| HSAR | ≤ 0.2 |
| TEGC | ≤ 0.2 |
| PPGP | ≤ 0.2 |
| QMAF | ≤ 0.2 |
| TQGP | ≤ 0.2 |
| IMVQ | ≤ 0.2 |
| NKSG | ≤ 0.2 |
| KDSV | ≤ 0.2 |
| FVIG | ≤ 0.2 |

| Variant | one-hybrid fitness for binding NBS DNA |
| --- | --- |
| ITTP | ≤ 0.2 |
| VWGG | ≤ 0.2 |
| EYRD | ≤ 0.2 |
| LETI | ≤ 0.2 |
| WTVS | ≤ 0.2 |
| ALYI | ≤ 0.2 |
| AERV | ≤ 0.2 |
| CPPM | ≤ 0.2 |
| GIIR | ≤ 0.2 |
| EHVG | ≤ 0.2 |
| TRHK | ≤ 0.2 |
| VFKQ | ≤ 0.2 |
| RKFA | ≤ 0.2 |
| WAAT | ≤ 0.2 |
| TVKS | ≤ 0.2 |
| CANQ | ≤ 0.2 |
| YTHW | ≤ 0.2 |
| VPFH | ≤ 0.2 |
| SYKY | ≤ 0.2 |
| EPNS | ≤ 0.2 |
| DRLH | ≤ 0.2 |
| PGVL | ≤ 0.2 |
| NGNG | ≤ 0.2 |
| THDS | ≤ 0.2 |

| Variant | one-hybrid fitness for binding NBS DNA |
| --- | --- |
| CYRH | ≤ 0.2 |
| DLAS | ≤ 0.2 |
| QINI | ≤ 0.2 |
| QVHL | ≤ 0.2 |
| TAGE | ≤ 0.2 |
| HLSR | ≤ 0.2 |
| GRSY | ≤ 0.2 |
| RDLL | ≤ 0.2 |
| QCRF | 0.423 |
| RRNC | 0.343 |
| YRPD | ≤ 0.2 |
| TFHV | ≤ 0.2 |
| GFAL | ≤ 0.2 |
| LSND | ≤ 0.2 |
| DKGD | ≤ 0.2 |
| GRPT | ≤ 0.2 |
| VLTH | ≤ 0.2 |
| LMIE | ≤ 0.2 |
| KDYS | ≤ 0.2 |
| RIQS | 0.349 |
| QRLI | 0.251 |
| PTQM | ≤ 0.2 |
| EHPD | ≤ 0.2 |
| DSAI | ≤ 0.2 |

| Variant | one-hybrid fitness for binding NBS DNA |
| --- | --- |
| AMLL | ≤ 0.2 |
| QQNV | 0.258 |
| VCAS | ≤ 0.2 |
| CSSK | ≤ 0.2 |
| MCDC | ≤ 0.2 |
| RMRP | ≤ 0.2 |
| GQTM | ≤ 0.2 |
| YNGS | ≤ 0.2 |
| IPSS | ≤ 0.2 |
| SGQK | ≤ 0.2 |
| GNTA | ≤ 0.2 |
| PMKC | ≤ 0.2 |
| QTPY | ≤ 0.2 |
| CKPD | ≤ 0.2 |
| MHRG | ≤ 0.2 |
| MYPV | ≤ 0.2 |
| RTYW | ≤ 0.2 |
| MKPG | ≤ 0.2 |
| PKTS | ≤ 0.2 |
| LQPY | ≤ 0.2 |
| ACRM | ≤ 0.2 |
| CIHT | ≤ 0.2 |
| NALC | ≤ 0.2 |
| QPAM | ≤ 0.2 |

| Variant | one-hybrid fitness for binding NBS DNA |
| --- | --- |
| RVWY | ≤ 0.2 |
| PTED | ≤ 0.2 |
| AGDQ | ≤ 0.2 |
| SPMS | ≤ 0.2 |
| ICMS | ≤ 0.2 |
| DTSG | ≤ 0.2 |
| IPVV | ≤ 0.2 |
| ASMP | ≤ 0.2 |
| MLTY | ≤ 0.2 |
| DPRC | ≤ 0.2 |
| ELGV | ≤ 0.2 |
| NVTL | ≤ 0.2 |
| RRDT | 0.755 |
| QDRY | ≤ 0.2 |
| HVSA | ≤ 0.2 |
| NTQR | ≤ 0.2 |
| VFSK | ≤ 0.2 |
| NIHT | ≤ 0.2 |
| PRPW | ≤ 0.2 |
| LHAI | ≤ 0.2 |
| TRYW | ≤ 0.2 |
| VNVH | ≤ 0.2 |
| ILKR | 0.237 |
| ALTN | ≤ 0.2 |

| Variant | one-hybrid fitness for binding NBS DNA |
| --- | --- |
| MGEC | ≤ 0.2 |
| AYVI | ≤ 0.2 |
| HTPL | ≤ 0.2 |
| IIER | ≤ 0.2 |
| RMEK | ≤ 0.2 |
| QAWM | ≤ 0.2 |
| VIGF | ≤ 0.2 |
| VGPP | ≤ 0.2 |
| TNHW | ≤ 0.2 |
| RLWW | ≤ 0.2 |
| QYSQ | ≤ 0.2 |
| VLAN | ≤ 0.2 |
| MVAQ | ≤ 0.2 |
| PIEF | ≤ 0.2 |
| LPFM | ≤ 0.2 |
| TLAD | ≤ 0.2 |
| MVVR | ≤ 0.2 |
| MPCL | ≤ 0.2 |
| RNRV | ≤ 0.2 |
| NRSL | ≤ 0.2 |
| IVCD | ≤ 0.2 |
| ESYN | ≤ 0.2 |
| ESTK | ≤ 0.2 |
| GVKC | ≤ 0.2 |

| Variant | one-hybrid fitness for binding NBS DNA |
| --- | --- |
| QGYF | ≤ 0.2 |
| LNQS | ≤ 0.2 |
| IWVC | ≤ 0.2 |
| NCVF | ≤ 0.2 |
| WMNS | ≤ 0.2 |
| HAGH | ≤ 0.2 |
| PMPV | ≤ 0.2 |
| SDNV | ≤ 0.2 |
| HDAL | ≤ 0.2 |
| QTFT | 0.515 |
| TRCD | ≤ 0.2 |
| HMAT | ≤ 0.2 |
| PLDR | ≤ 0.2 |
| STHW | ≤ 0.2 |
| RCYG | ≤ 0.2 |
| PFDL | ≤ 0.2 |
| SYHA | ≤ 0.2 |
| LPDY | ≤ 0.2 |
| LWSP | ≤ 0.2 |
| QQPP | ≤ 0.2 |
| ELST | ≤ 0.2 |
| QHIK | ≤ 0.2 |
| SCFK | ≤ 0.2 |
| EMPS | ≤ 0.2 |

| Variant | one-hybrid fitness for binding NBS DNA |
| --- | --- |
| LSSG | ≤ 0.2 |
| PYIG | ≤ 0.2 |
| SRWY | ≤ 0.2 |
| NSMH | ≤ 0.2 |
| PNTT | ≤ 0.2 |
| RGPI | ≤ 0.2 |
| RHCH | ≤ 0.2 |
| QTGQ | 0.27 |
| ADSD | ≤ 0.2 |
| SFRR | ≤ 0.2 |
| KHTR | ≤ 0.2 |
| DSRG | ≤ 0.2 |
| KDTN | ≤ 0.2 |
| QIPC | ≤ 0.2 |
| PHFK | ≤ 0.2 |
| ILRC | ≤ 0.2 |
| CLQA | ≤ 0.2 |
| PFPI | ≤ 0.2 |
| GYMG | ≤ 0.2 |
| YLIA | ≤ 0.2 |
| ACSQ | ≤ 0.2 |
| IISM | ≤ 0.2 |
| PHVA | ≤ 0.2 |
| YLRE | ≤ 0.2 |

| Variant | one-hybrid fitness for binding NBS DNA |
| --- | --- |
| ATLR | ≤ 0.2 |
| DNTK | ≤ 0.2 |
| KTLA | ≤ 0.2 |
| ITNC | ≤ 0.2 |
| AWWT | ≤ 0.2 |
| YLTL | ≤ 0.2 |
| ANQT | ≤ 0.2 |
| AIHQ | ≤ 0.2 |
| QFKS | 0.295 |
| KNKP | ≤ 0.2 |
| GRLV | ≤ 0.2 |
| FQYG | ≤ 0.2 |
| GEDR | ≤ 0.2 |
| FLLI | ≤ 0.2 |
| AFSG | ≤ 0.2 |
| KNSF | ≤ 0.2 |
| WRRW | ≤ 0.2 |
| HGKT | ≤ 0.2 |
| RKWI | ≤ 0.2 |
| HLER | ≤ 0.2 |
| ASTR | ≤ 0.2 |
| GMLN | ≤ 0.2 |
| DPSD | ≤ 0.2 |
| DYML | ≤ 0.2 |

| Variant | one-hybrid fitness for binding NBS DNA |
| --- | --- |
| APPW | ≤ 0.2 |
| KRLK | ≤ 0.2 |
| DLTE | ≤ 0.2 |
| IKRG | ≤ 0.2 |
| PICW | ≤ 0.2 |
| HTEG | ≤ 0.2 |
| HGSS | ≤ 0.2 |
| CMLR | ≤ 0.2 |
| TRAV | ≤ 0.2 |
| DLSG | ≤ 0.2 |
| YAEL | ≤ 0.2 |
| CSCI | ≤ 0.2 |
| FATY | ≤ 0.2 |
| YHER | ≤ 0.2 |
| PCQR | ≤ 0.2 |
| KFRI | ≤ 0.2 |
| TATA | ≤ 0.2 |
| RIKI | ≤ 0.2 |
| QRWK | 0.239 |
| NTRT | ≤ 0.2 |
| LTGR | ≤ 0.2 |
| FYCG | ≤ 0.2 |
| VFRP | ≤ 0.2 |
| ALDY | ≤ 0.2 |

| Variant | one-hybrid fitness for binding NBS DNA |
| --- | --- |
| NDQR | ≤ 0.2 |
| DHKR | ≤ 0.2 |
| QTWY | ≤ 0.2 |
| QRWV | 0.21 |
| GQTF | ≤ 0.2 |
| MMHG | ≤ 0.2 |
| FVTD | ≤ 0.2 |
| TVLA | ≤ 0.2 |
| TAGM | ≤ 0.2 |
| YAVD | ≤ 0.2 |
| GSKA | ≤ 0.2 |
| VGPN | ≤ 0.2 |
| QYWN | ≤ 0.2 |
| KCYR | ≤ 0.2 |
| MSKV | ≤ 0.2 |
| CHLT | ≤ 0.2 |
| GSAC | ≤ 0.2 |
| PEHT | ≤ 0.2 |
